In PMC10868759:
No constants are given. Whether binding was seen depends on the method and setting. Binding seen in cells or lysates may run through a third protein. Some entries that bind do so weakly or less than the wild type. Sequences can lack the tags named with a protein.

Assays:
Test in all cases: split reporter; BiFC: N-terminal YN and YC fusions co-expressed in epidermal cells of N. benthamiana leaves, observed 3 days after infiltration by spinning-disk microscopy; CFP-N7 as transformation control
[1] = biological target: T1, CESA1, N-terminal YN or YC fusion (BiFC) (Arabidopsis thaliana) (UniProt O48946)
T1 sequence: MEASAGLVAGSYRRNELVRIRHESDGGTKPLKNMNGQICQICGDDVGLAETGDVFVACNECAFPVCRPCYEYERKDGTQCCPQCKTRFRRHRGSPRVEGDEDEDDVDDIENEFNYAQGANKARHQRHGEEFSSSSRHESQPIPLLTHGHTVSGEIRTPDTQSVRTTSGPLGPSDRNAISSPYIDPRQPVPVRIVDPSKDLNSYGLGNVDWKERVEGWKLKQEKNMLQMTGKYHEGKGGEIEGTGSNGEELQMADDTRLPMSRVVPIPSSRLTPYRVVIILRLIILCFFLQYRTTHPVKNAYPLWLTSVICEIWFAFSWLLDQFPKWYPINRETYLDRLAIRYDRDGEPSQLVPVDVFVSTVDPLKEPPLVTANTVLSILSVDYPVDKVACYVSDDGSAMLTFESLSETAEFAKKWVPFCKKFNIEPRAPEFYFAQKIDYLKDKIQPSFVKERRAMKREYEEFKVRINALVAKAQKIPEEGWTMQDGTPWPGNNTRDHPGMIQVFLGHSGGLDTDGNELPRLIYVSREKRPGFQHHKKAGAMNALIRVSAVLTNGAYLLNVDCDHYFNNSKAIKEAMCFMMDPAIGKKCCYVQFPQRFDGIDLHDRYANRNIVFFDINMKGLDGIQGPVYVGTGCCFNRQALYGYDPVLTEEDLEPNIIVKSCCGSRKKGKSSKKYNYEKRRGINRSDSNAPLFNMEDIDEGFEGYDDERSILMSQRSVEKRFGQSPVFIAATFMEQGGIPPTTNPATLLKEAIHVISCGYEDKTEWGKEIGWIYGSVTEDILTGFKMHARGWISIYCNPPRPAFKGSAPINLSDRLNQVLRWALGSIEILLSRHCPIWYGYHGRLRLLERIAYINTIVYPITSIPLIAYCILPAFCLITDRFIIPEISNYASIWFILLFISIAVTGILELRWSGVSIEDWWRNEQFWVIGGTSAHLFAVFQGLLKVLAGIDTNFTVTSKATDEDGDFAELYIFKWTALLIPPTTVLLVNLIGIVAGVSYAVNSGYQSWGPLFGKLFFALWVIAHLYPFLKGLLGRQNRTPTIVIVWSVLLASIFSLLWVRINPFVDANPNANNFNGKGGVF

[2] = biological target: T2, CESA3, N-terminal YN or YC fusion (BiFC) (Arabidopsis thaliana) (UniProt Q941L0)
T2 sequence: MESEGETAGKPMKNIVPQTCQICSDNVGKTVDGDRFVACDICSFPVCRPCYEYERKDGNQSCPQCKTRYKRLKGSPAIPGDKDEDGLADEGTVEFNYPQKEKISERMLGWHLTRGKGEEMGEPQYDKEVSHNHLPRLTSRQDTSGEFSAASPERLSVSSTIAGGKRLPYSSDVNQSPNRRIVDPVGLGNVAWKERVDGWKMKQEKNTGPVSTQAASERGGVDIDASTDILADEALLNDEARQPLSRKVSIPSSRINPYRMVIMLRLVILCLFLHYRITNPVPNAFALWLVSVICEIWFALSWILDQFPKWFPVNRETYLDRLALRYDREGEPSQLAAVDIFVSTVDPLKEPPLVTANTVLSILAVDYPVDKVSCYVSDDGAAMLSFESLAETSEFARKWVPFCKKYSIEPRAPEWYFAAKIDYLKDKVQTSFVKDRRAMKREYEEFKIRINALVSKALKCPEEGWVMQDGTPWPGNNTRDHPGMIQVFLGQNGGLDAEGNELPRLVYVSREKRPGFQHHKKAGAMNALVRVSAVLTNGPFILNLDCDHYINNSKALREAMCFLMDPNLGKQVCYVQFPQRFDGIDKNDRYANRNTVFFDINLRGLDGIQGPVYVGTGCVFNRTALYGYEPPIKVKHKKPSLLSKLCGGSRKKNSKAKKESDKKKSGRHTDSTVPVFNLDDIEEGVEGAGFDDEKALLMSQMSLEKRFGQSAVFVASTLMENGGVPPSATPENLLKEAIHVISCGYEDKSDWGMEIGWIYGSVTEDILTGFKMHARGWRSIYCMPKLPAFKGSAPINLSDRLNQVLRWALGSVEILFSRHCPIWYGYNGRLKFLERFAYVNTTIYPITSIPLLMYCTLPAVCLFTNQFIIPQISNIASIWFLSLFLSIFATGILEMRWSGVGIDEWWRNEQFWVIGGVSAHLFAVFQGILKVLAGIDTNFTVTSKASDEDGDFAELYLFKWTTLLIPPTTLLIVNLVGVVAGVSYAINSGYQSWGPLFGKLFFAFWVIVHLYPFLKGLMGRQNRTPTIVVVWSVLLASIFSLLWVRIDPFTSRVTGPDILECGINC

[3] = biological target: T3, CESA6, N-terminal YN or YC fusion (BiFC) (Arabidopsis thaliana) (UniProt Q94JQ6)
T3 sequence: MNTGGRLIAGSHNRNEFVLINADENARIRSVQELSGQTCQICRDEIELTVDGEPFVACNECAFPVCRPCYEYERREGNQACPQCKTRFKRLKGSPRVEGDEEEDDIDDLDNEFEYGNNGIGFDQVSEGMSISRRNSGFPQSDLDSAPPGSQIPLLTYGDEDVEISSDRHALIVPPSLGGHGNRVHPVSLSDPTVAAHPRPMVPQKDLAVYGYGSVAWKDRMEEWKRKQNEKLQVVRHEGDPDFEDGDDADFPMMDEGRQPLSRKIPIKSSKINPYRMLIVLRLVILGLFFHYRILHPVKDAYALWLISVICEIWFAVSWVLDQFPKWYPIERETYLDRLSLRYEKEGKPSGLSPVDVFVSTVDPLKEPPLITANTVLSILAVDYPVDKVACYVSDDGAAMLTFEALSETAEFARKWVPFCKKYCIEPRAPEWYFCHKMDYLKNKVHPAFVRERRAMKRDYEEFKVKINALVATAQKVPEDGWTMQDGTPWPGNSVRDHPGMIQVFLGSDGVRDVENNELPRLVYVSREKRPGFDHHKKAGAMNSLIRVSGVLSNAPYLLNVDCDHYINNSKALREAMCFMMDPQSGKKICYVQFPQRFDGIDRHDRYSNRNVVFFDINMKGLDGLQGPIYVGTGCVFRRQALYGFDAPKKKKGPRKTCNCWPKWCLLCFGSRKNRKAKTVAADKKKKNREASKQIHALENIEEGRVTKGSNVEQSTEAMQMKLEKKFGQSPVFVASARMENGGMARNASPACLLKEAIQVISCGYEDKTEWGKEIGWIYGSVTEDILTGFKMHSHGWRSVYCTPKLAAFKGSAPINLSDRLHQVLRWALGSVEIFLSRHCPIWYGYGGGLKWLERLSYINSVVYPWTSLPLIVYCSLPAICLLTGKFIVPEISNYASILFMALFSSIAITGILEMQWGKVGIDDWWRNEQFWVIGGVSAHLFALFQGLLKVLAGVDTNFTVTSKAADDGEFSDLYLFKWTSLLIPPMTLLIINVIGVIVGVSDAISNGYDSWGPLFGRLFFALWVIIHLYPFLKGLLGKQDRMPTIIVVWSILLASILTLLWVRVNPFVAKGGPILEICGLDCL

B1: TIP1, N-terminal YN or YC fusion (BiFC) (enzyme, UniProt Q52T38 1-620)
chain: MSSEIEVVEEIQSNPKENGESSSKGIEEESLKNDVYTAAAYGDLEKLHRLVECEGSSVSEPDALGYYALQWSALNNRVAVAQYLIEHGGDVNATDHTGQTALHWSAVRGAIQVAELLLQEGARVDATDMYGYQATHVAAQYGQTAFLCHVVSKWNADPDVPDNDGRSPLHWAAYKGFADSIRLLLFLDAYRGRQDKEGCTPLHWAAIRGNLEACTVLVQAGKKEDLMITDKTGLTPAQLAAEKNHRQVSFFLGNARSLLEKRCDGSSPLGRLSKLGLAPVLWIMILLLLLVYTNSVVLASNLPKLTTGIGALAWLGFILATAGLFLFYRCSRKDPGYIRMNIHDPQTMKDDEPLLKIELNNPALLAGNWTQLCATCKIIRPLRAKHCSTCDRCVEQFDHHCPWVSNCVGKKNKWEFFLFLLLEVLAMLITGGVTLARVLSDPSAPSSFGAWMSHVASNHVGALSFLLVEFCLFFSVAVLTVIQASQISRNITTNEMANALRYSYLRGPGGRFRNPYDLGCRRNCSDFLVKGYNEDIECHEEDATQRPEGISMMQMQRNPNLQNGNGHVAIDVNPTHNSQSAHVHSANCSHSHNSKSKSDNVPLGLGLGLSRNPTRPVVSP
For B1, the binding [1] was “binds”, the binding [2] was “binds” and the binding [3] was “binds”.

B2: CESA1, N-terminal YN or YC fusion (BiFC) (protein, UniProt O48946 1-1081)
chain: MEASAGLVAGSYRRNELVRIRHESDGGTKPLKNMNGQICQICGDDVGLAETGDVFVACNECAFPVCRPCYEYERKDGTQCCPQCKTRFRRHRGSPRVEGDEDEDDVDDIENEFNYAQGANKARHQRHGEEFSSSSRHESQPIPLLTHGHTVSGEIRTPDTQSVRTTSGPLGPSDRNAISSPYIDPRQPVPVRIVDPSKDLNSYGLGNVDWKERVEGWKLKQEKNMLQMTGKYHEGKGGEIEGTGSNGEELQMADDTRLPMSRVVPIPSSRLTPYRVVIILRLIILCFFLQYRTTHPVKNAYPLWLTSVICEIWFAFSWLLDQFPKWYPINRETYLDRLAIRYDRDGEPSQLVPVDVFVSTVDPLKEPPLVTANTVLSILSVDYPVDKVACYVSDDGSAMLTFESLSETAEFAKKWVPFCKKFNIEPRAPEFYFAQKIDYLKDKIQPSFVKERRAMKREYEEFKVRINALVAKAQKIPEEGWTMQDGTPWPGNNTRDHPGMIQVFLGHSGGLDTDGNELPRLIYVSREKRPGFQHHKKAGAMNALIRVSAVLTNGAYLLNVDCDHYFNNSKAIKEAMCFMMDPAIGKKCCYVQFPQRFDGIDLHDRYANRNIVFFDINMKGLDGIQGPVYVGTGCCFNRQALYGYDPVLTEEDLEPNIIVKSCCGSRKKGKSSKKYNYEKRRGINRSDSNAPLFNMEDIDEGFEGYDDERSILMSQRSVEKRFGQSPVFIAATFMEQGGIPPTTNPATLLKEAIHVISCGYEDKTEWGKEIGWIYGSVTEDILTGFKMHARGWISIYCNPPRPAFKGSAPINLSDRLNQVLRWALGSIEILLSRHCPIWYGYHGRLRLLERIAYINTIVYPITSIPLIAYCILPAFCLITDRFIIPEISNYASIWFILLFISIAVTGILELRWSGVSIEDWWRNEQFWVIGGTSAHLFAVFQGLLKVLAGIDTNFTVTSKATDEDGDFAELYIFKWTALLIPPTTVLLVNLIGIVAGVSYAVNSGYQSWGPLFGKLFFALWVIAHLYPFLKGLLGRQNRTPTIVIVWSVLLASIFSLLWVRINPFVDANPNANNFNGKGGVF
B2 was tested, and the binding [1] was “binds”.
